Biological target: T1, mature form HSP90C (aa. 61-780), purified (Arabidopsis, UniProt Q9SIF2 61-780)
T1 construct: Arabidopsis plastidic HSP90C, mature form, aa 61-780; source: E. coli BL21 (DE3)-pRIL, purified (Ni-NTA, TEV cleavage, Superdex 200)
T1 sequence (looked up): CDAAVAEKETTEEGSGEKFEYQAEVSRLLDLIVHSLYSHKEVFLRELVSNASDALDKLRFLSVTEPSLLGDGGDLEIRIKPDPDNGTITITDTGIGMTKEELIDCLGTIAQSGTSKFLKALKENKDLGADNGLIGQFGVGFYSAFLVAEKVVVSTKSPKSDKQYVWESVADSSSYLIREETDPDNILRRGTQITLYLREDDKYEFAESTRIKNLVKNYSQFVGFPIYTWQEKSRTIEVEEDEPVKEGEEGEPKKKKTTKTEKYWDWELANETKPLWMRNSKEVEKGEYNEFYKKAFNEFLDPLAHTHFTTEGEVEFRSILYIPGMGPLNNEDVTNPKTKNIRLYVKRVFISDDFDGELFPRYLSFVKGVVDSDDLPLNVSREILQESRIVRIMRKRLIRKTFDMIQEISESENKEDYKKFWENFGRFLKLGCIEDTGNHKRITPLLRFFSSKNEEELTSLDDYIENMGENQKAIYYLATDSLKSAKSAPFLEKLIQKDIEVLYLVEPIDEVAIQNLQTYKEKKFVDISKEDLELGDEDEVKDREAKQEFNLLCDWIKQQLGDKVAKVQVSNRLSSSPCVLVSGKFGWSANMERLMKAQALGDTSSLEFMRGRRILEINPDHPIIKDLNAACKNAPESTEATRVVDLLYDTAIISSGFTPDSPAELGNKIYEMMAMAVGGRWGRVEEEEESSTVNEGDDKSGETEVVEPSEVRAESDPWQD
Assay: SEC; in vitro size exclusion chromatography with purified proteins; mPsbO1 or mPsbO1^T200A in presence or absence of HSP90C
Conditions: both partners purified

B1: mPsbO1^T200A, purified (domain or fragment)
chain: not shown
notes: also called mutant PsbO1; source: E. coli BL21 (DE3)-pRIL, purified (Ni-NTA, TEV cleavage, Superdex 200)
binding result: binds
